Assay results: PubChem BioAssay AID360 (National Center for Advancing Translational Sciences (NCATS), 2006)
In all, about 48,000 compounds went through this assay and about 550 (1.1%) were called active. Roughly 4% stayed inconclusive and do not appear here. Cut-off read from the data, not from the text of the source: active = potency below about 15 µM; inconclusive = mostly about 16 µM to 33 µM; inactive = weaker than that. The list shows a part of the results.

Molecular target: Lysosomal acid glucosylceramidase (Homo sapiens) (UniProt P04062)
Assay: Glucocerebrosidase;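 note: the screen sought inhibitors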
Conditions: purified enzyme, resorufin glucoside fluorescence (screen aimed at inhibitors), 20 min
Summary of the method: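 Wild-type enzyme at 0.2 nM final in 50mM citric acid/KH2PO4, 10mM sodium taurocholate, 0.01% tween-20, pH 5.9, with resorufin beta-D-glucopyranoside at 30 uM final. Compounds titrated, 20 min at RT, red fluorescence read; AC50 from titration.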
Potency is the fitted concentration of half-maximal effect.

Chain of UniProt P04062 (P04062 whole entry, looked up): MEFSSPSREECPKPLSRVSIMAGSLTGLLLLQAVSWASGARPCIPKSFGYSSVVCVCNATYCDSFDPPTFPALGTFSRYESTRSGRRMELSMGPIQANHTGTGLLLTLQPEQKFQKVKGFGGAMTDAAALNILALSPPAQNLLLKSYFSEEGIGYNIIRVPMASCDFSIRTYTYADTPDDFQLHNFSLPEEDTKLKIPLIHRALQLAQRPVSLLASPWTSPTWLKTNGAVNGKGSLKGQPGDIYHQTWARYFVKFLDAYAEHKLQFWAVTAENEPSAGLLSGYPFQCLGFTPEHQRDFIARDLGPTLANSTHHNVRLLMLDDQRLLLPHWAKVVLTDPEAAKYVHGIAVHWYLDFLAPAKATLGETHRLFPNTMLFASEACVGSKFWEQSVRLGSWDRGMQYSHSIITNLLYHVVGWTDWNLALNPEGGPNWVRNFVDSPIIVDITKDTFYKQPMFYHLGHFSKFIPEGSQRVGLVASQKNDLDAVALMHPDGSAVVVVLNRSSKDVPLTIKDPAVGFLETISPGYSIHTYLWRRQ

Potency, inactive:
COCCNC(=O)c1ccccc1-c1nc(-c2ccccc2Cl)no1 > 76.9 µM
O=C(O)C1CC=CCC1C(=O)Nc1cc(Cl)ccc1Cl (stereo unspecified) > 76.9 µM
C#CC1(O)CC(C)N(C)C(C)C1 (stereo unspecified) > 76.9 µM
CN(CCCC(=O)NCc1ccco1)S(=O)(=O)c1ccccc1 > 76.9 µM
O=C(Oc1nsnc1N1CCCCC1)N1CCOCC1 > 76.9 µM
COc1cccc(CNC(=O)c2ccccc2N)c1 > 76.9 µM
O=S(=O)(c1cccc(-c2nc3ccccc3s2)c1)N1CCCC1 > 76.9 µM
Cc1nnc(N2CCN(c3ccccc3)CC2)[nH]c1=O > 76.9 µM
CCn1c(COc2ccccc2)nnc1SCc1ccc(C#N)cc1 > 76.9 µM
O=C(NCCc1ccccn1)c1ccc(S(=O)(=O)N2CCCCCC2)cc1
COc1ccc(OC)c(C(=O)C2COC(=O)C2)c1 (stereo unspecified) > 76.9 µM
CCOc1cc(C2C(C#N)=C(N)Oc3n[nH]c(CC)c32)ccc1OCCN1CCOCC1 (stereo unspecified) > 76.9 µM
CCOC(=O)c1c(C)c(C(=O)NCCc2ccc(S(N)(=O)=O)cc2)c(C)n1CC > 76.9 µM
COc1cccc(CNn2cnnc2)c1OCc1ccc(F)cc1 > 76.9 µM
N#C/C(=C/c1ccc(N2CCCCCC2)o1)c1ccc(F)cc1 > 76.9 µM
CCS(=O)(=O)N1Cc2ccccc2CC1C(=O)N1CCN(c2cccc(C)c2C)CC1 (stereo unspecified) > 76.9 µM
O=C1CC(c2ccc(F)cc2)Cc2nc(N3CCOCC3)ncc21 (stereo unspecified) > 76.9 µM
COC(=O)c1[nH]c2cc(OC)ccc2c1NC(=O)CN1CCC(C(N)=O)(N2CCCCC2)CC1 > 76.9 µM
COc1ccccc1OCCCn1c(C)c(C#N)c2ccccc21 > 76.9 µM
COc1ccc(OCC(O)COc2ccc(C(=O)O)cc2)cc1 (stereo unspecified) > 76.9 µM
Cn1c(N)c(C(=O)COC(=O)C2(c3cccc(F)c3)CCCC2)c(=O)n(C)c1=O
O=c1c2ccccc2n2cnnc2n1-c1ccccc1 > 76.9 µM
O=C(Oc1ccccc1OC(=O)N1CCOCC1)N1CCOCC1 > 76.9 µM
O=C(c1ccc(S(=O)(=O)N2CCCC2)cc1)N1CCN(Cc2ccc3c(c2)OCO3)CC1 > 76.9 µM
O=C(COc1ccccc1)N1CCN(S(=O)(=O)Cc2ccccc2)CC1 > 76.9 µM
CCCC1=[N+](CC)CCn2c(C)ccc21 > 76.9 µM
Cc1ccnc2nc(C(=O)N3CCN(S(=O)(=O)c4ccccc4)CC3)nn12 > 76.9 µM
Cc1ccccc1-c1ccc(=O)n(CC(=O)Nc2ccc(N3CCOCC3)cc2)n1 > 76.9 µM
O=S(=O)(NC1CCCCC1)c1ccc(Cl)s1
Cc1nc2nc3c(cn2n1)C(=O)CC(C)(C)C3 > 76.9 µM
CCN(CC(=O)NC)S(=O)(=O)c1ccc(C)cc1 > 76.9 µM
COC(=O)c1[nH]c2cccc(OC)c2c1NC(=O)CCN1CCC(C(N)=O)CC1 > 76.9 µM
COc1ccccc1OCC(=O)O > 76.9 µM
CCc1nc2ccccc2c(=O)n1NC(=O)c1c(O)c2ccccc2[nH]c1=O > 76.9 µM
O=C(NCc1cccs1)C1CCN(c2nc3ccccc3o2)CC1 > 76.9 µM
CCc1[nH]nc2c1C(c1cccc(OC(=O)N3CCOCC3)c1)C(C#N)=C(N)O2 (stereo unspecified) > 76.9 µM
Cc1cc(C)c(C#N)c(SCS(=O)Cc2ccc(Cl)cc2)n1 (stereo unspecified) > 76.9 µM
COC(=O)c1ccc(C2/C(=C(/O)c3ccc(OC)cc3)C(=O)C(=O)N2CC2CCCO2)cc1 (stereo unspecified) > 76.9 µM
Cc1cccc(C(=O)NCc2nnc(SCC(=O)N3CCN(c4ccccc4)CC3)n2C)c1 > 76.9 µM
O=C(NCCN1CCOCC1)c1cn(CCc2ccccc2)nn1 > 76.9 µM
CC(C)CCn1cnc2c(cnn2-c2ccc(Cl)cc2)c1=O > 76.9 µM
Cc1ccccc1-n1c(SCc2cc(=O)n3ccccc3n2)nc2[nH]ncc2c1=O > 76.9 µM
COc1ccc(N2C(=O)CC(N3CCN(C4CCc5ccccc5C4)CC3)C2=O)cc1 (stereo unspecified) > 76.9 µM
Cc1cc2c(cc1C)NC(c1c(C)n(C)n(-c3ccccc3)c1=O)C1=C(CC(C)(C)CC1=O)N2 (stereo unspecified) > 76.9 µM
Cc1c(C(=O)OC2CCCCC2)sc2nc[nH]c(=O)c12 > 76.9 µM
CCOc1ccc(-n2nnnc2SCC(=O)c2ccccc2)cc1 > 76.9 µM
COc1ccccc1N1CCN(Cc2nc3ccccc3c(=O)n2CC(C)=O)CC1 > 76.9 µM
CCC(=O)N1CCc2cc(S(=O)(=O)NC(C(=O)NCc3ccc(F)cc3)C(C)C)ccc21 (stereo unspecified) > 76.9 µM
N#Cc1cc2cc3c(cc2nc1SCC(=O)OC1CCCCC1)OCO3 > 76.9 µM
CC(C)(/C=N/O)/[N+]([O-])=C/C=[N+](\[O-])C(C)(C)/C=N/O > 76.9 µM
CCn1c(Oc2ccc(Oc3ncc(Cl)cc3Cl)cc2)nc2c1c(=O)n(C)c(=O)n2C > 76.9 µM
COc1ccc(NC(=O)C=C(C)C)cc1Cl > 76.9 µM
Cc1onc(-c2ccccc2)c1C(N)=O > 76.9 µM
COc1ccc(Cc2nnc(NC(=O)C3CCCO3)s2)cc1 (stereo unspecified) > 76.9 µM
O=C(NCc1ccco1)Oc1ccccc1 > 76.9 µM
Nc1ccccc1-c1nc2ccccc2[nH]1 > 76.9 µM
O=C(Cc1c(O)c2ccccc2[nH]c1=O)NC1CCCCCCC1 > 76.9 µM
Cc1nn(-c2ccc(F)cc2)c2c1cc(C#N)c1nc3ccccc3n12 > 76.9 µM
CCOC(=O)CN1CC23C=CC(O2)C(C(=O)NC2CCCCC2)C3C1=O (stereo unspecified) > 76.9 µM
Cn1nnnc1SCC(=O)N1c2ccccc2CCc2ccccc21 > 76.9 µM
CCCn1c(SCC(=O)Nc2nnc(C(C)C)s2)nc2c1c(=O)n(C)c(=O)n2C > 76.9 µM
CCOCCc1nnc(NC(=O)CN2C(=O)c3ccccc3C2=O)s1 > 76.9 µM
COc1ccc(-c2nnc(SC3CCOC3=O)n2C2CCCCC2)cc1OC (stereo unspecified) > 76.9 µM
CCN(CC)C(=O)CSCC(=O)Nc1ccccc1 > 76.9 µM
Cc1[nH]n2c(=O)cc(Cc3ccccc3)nc2c1C#N > 76.9 µM
Cc1noc(C)c1C(=O)N1CCc2ccccc2C1 > 76.9 µM
CCOC(=O)c1ccc(NC(=O)N2CCN(c3ccccn3)CC2)cc1 > 76.9 µM
COCC(=O)NC1CCN(S(=O)(=O)c2ccc(C(=O)O)cc2)CC1 > 76.9 µM
O=C(NCCN1CCOCC1)NC1(C(F)(F)F)Oc2ccccc2O1
CCn1c(SCC(=O)c2ccccc2)nnc1-c1cnccn1 > 76.9 µM
Cn1c(=O)c(=O)n(C)c2cc(S(=O)(=O)N3CCN(Cc4ccccc4)CC3)ccc21 > 76.9 µM
Cc1sc2ncnc(OCC(=O)NCC3CCCO3)c2c1C (stereo unspecified) > 76.9 µM
CC(C)NC(=O)CCCn1c(=S)[nH]c2cc3c(cc2c1=O)OCO3 > 76.9 µM
CCN(CC)C(=O)CSc1nnc(-c2ccco2)n1Cc1ccco1 > 76.9 µM
O=C(NCC1CCCO1)C1CCC(=O)N1Cc1ccccc1Cl (stereo unspecified) > 76.9 µM
COc1ccc(-c2cc3ccc(OCc4nn[nH]n4)cc3oc2=O)cc1OC > 76.9 µM
O=C(CN1C(=O)C2C3C=CC(C3)C2C1=O)N1CC(=O)N(CCc2ccccc2)C(=O)C1 (stereo unspecified) > 76.9 µM
CCC(=O)Nc1ccc(NC(=O)CSc2nnc(C(C)C)n2C)cc1 > 76.9 µM
CCOC(=O)CSc1nnc(CNC(=O)c2ccccc2OC)n1-c1ccc(OC)cc1 > 76.9 µM
CCCC(NC(=O)c1ccccc1)c1nc2ccccc2n1Cc1ccc(C(=O)OC)o1 (stereo unspecified) > 76.9 µM
COc1ccc(NC(C)=O)cc1NC(=O)CCn1c(=O)sc2ccccc21 > 76.9 µM
COc1cc2ccccc2cc1C(=O)Nc1ccc(N2CCN(C)CC2)cc1 > 76.9 µM
COc1ccc(OC)c(N=c2oc3c(OC)cccc3cc2C(=O)NCc2ccco2)c1 > 76.9 µM
O=C(NCC1COc2ccccc2O1)c1ccc(NC(=O)C2CCCO2)cc1 (stereo unspecified)
O=C(O)CC(NC(=O)C(c1ccccc1)c1ccccc1)c1ccco1 (stereo unspecified) > 76.9 µM
CCc1nccn1S(=O)(=O)c1ccc(Br)cc1Br > 76.9 µM
O=C(Cn1c(=O)n(Cc2ccco2)c(=O)c2ccccc21)NCC1CCCO1 (stereo unspecified) > 76.9 µM
C=CCc1cc(OC)ccc1OCCON1C(=O)CCC1=O > 76.9 µM
CC(C)c1ccc(-c2nc(N3CCOCC3)[nH]c(=O)c2C#N)cc1 > 76.9 µM
COc1ccc(-n2nnnc2SCC(=O)c2ccc(OC)c(OC)c2)cc1 > 76.9 µM
COc1ccc(CCN(Cc2cc3cc4c(cc3[nH]c2=O)OCO4)C(C)=O)cc1OC > 76.9 µM
